Source: patent US6015941A, “Peptide derivatives of tachyplesin having antimicrobial activity” (Pioneer Hi-Bred International, Inc., priority 1997, dated 2000)
At least one peptide structure holds a part that was inferred or is arguable (an end, a ring closure or a residue). Residues, ends and D or L forms follow the SMILES beside them.

How the values were obtained:
[1] = Membrane perturbation: carboxyfluorescein dye leakage from liposomes; conditions: acidic liposomes
[2] = tested on: Shigella dysenteriae (ATCC 13313); assay: Disk diffusion assay, human pathogens; type: cell-based
[3] = peptide ~10 μM (up to 10 μM), 20 min

Row | SMILES | carboxyfluorescein dye leakage ([1]; peptide 35 μM, 20 min incubation) | carboxyfluorescein dye leakage [1, 3] | S. dysenteria zone size ([2]; 50 μg per disk) | S. dysenteria zone size ([2]; 100 μg per disk)
1 | CC[C@H](C)[C@H](NC(=O)CNC(=O)[C@H](CCCNC(=N)N)NC(=O)[C@H](Cc1ccc(O)cc1)NC(=O)[C@H](C)NC(=O)[C@@H](NC(=O)[C@H](CCCNC(=N)N)NC(=O)[C@H](Cc1ccccc1)NC(=O)[C@H](C)NC(=O)[C@H](Cc1c[nH]c2ccccc12)NC(=O)[C@@H](N)CCCCN)C(C)C)C(=O)N[C@@H](C)C(=O)N[C@@H](Cc1ccc(O)cc1)C(=O)N[C@@H](CCCNC(=N)N)C(=O)N[C@@H](CCCNC(=N)N)C(=O)N[C@@H](C)C(=O)N[C@@H](CCCNC(=N)N)C(=O)O [TPA] (H-KWAFRVAYRGIAYRRAR-OH) | ~ 80% | 50% |  | 
2 | CC[C@H](C)[C@H](NC(=O)CNC(=O)[C@H](CCCNC(=N)N)NC(=O)[C@H](Cc1ccc(O)cc1)NC(=O)[C@H](CC(=O)O)NC(=O)[C@@H](NC(=O)[C@H](CCCNC(=N)N)NC(=O)[C@H](Cc1ccccc1)NC(=O)[C@H](CC(=O)O)NC(=O)[C@H](Cc1c[nH]c2ccccc12)NC(=O)[C@@H](N)CCCCN)C(C)C)C(=O)N[C@@H](CC(=O)O)C(=O)N[C@@H](Cc1ccc(O)cc1)C(=O)N[C@@H](CCCNC(=N)N)C(=O)N[C@@H](CCCNC(=N)N)C(=O)N[C@@H](CC(=O)O)C(=O)N[C@@H](CCCNC(=N)N)C(=O)O [TPD] (H-KWDFRVDYRGIDYRRDR-OH) |  | did not release any encapsulated carboxyfluorescein | no zones | no zones
3 | CC[C@H](C)[C@H](NC(=O)CNC(=O)[C@H](CCCNC(=N)N)NC(=O)[C@H](Cc1ccc(O)cc1)NC(=O)[C@H](Cc1ccccc1)NC(=O)[C@@H](NC(=O)[C@H](CCCNC(=N)N)NC(=O)[C@H](Cc1ccccc1)NC(=O)[C@H](Cc1ccccc1)NC(=O)[C@H](Cc1c[nH]c2ccccc12)NC(=O)[C@@H](N)CCCCN)C(C)C)C(=O)N[C@@H](Cc1ccccc1)C(=O)N[C@@H](Cc1ccc(O)cc1)C(=O)N[C@@H](CCCNC(=N)N)C(=O)N[C@@H](CCCNC(=N)N)C(=O)N[C@@H](Cc1ccccc1)C(=O)N[C@@H](CCCNC(=N)N)C(=O)O [TPF] (H-KWFFRVFYRGIFYRRFR-OH) |  |  | 19 mm | 19 mm
4 | CC[C@H](C)[C@H](NC(=O)CNC(=O)[C@H](CCCNC(=N)N)NC(=O)[C@H](Cc1ccc(O)cc1)NC(=O)[C@@H](NC(=O)[C@@H](NC(=O)[C@H](CCCNC(=N)N)NC(=O)[C@H](Cc1ccccc1)NC(=O)[C@@H](NC(=O)[C@H](Cc1c[nH]c2ccccc12)NC(=O)[C@@H](N)CCCCN)[C@@H](C)CC)C(C)C)[C@@H](C)CC)C(=O)N[C@H](C(=O)N[C@@H](Cc1ccc(O)cc1)C(=O)N[C@@H](CCCNC(=N)N)C(=O)N[C@@H](CCCNC(=N)N)C(=O)N[C@H](C(=O)N[C@@H](CCCNC(=N)N)C(=O)O)[C@@H](C)CC)[C@@H](C)CC [TPI] (H-KWIFRVIYRGIIYRRIR-OH) |  |  | 14 mm | 17 mm
5 | CC[C@H](C)[C@H](NC(=O)CNC(=O)[C@H](CCCNC(=N)N)NC(=O)[C@H](Cc1ccc(O)cc1)NC(=O)[C@H](CC(C)C)NC(=O)[C@@H](NC(=O)[C@H](CCCNC(=N)N)NC(=O)[C@H](Cc1ccccc1)NC(=O)[C@H](CC(C)C)NC(=O)[C@H](Cc1c[nH]c2ccccc12)NC(=O)[C@@H](N)CCCCN)C(C)C)C(=O)N[C@@H](CC(C)C)C(=O)N[C@@H](Cc1ccc(O)cc1)C(=O)N[C@@H](CCCNC(=N)N)C(=O)N[C@@H](CCCNC(=N)N)C(=O)N[C@@H](CC(C)C)C(=O)N[C@@H](CCCNC(=N)N)C(=O)O [TPL] (H-KWLFRVLYRGILYRRLR-OH) |  |  | 16 mm | 17 mm
6 | CC[C@H](C)[C@H](NC(=O)CNC(=O)[C@H](CCCNC(=N)N)NC(=O)[C@H](Cc1ccc(O)cc1)NC(=O)[C@H](CCSC)NC(=O)[C@@H](NC(=O)[C@H](CCCNC(=N)N)NC(=O)[C@H](Cc1ccccc1)NC(=O)[C@H](CCSC)NC(=O)[C@H](Cc1c[nH]c2ccccc12)NC(=O)[C@@H](N)CCCCN)C(C)C)C(=O)N[C@@H](CCSC)C(=O)N[C@@H](Cc1ccc(O)cc1)C(=O)N[C@@H](CCCNC(=N)N)C(=O)N[C@@H](CCCNC(=N)N)C(=O)N[C@@H](CCSC)C(=O)N[C@@H](CCCNC(=N)N)C(=O)O [TPM] (H-KWMFRVMYRGIMYRRMR-OH) |  |  | 15 mm | 16 mm
7 | CC[C@H](C)[C@H](NC(=O)CNC(=O)[C@H](CCCNC(=N)N)NC(=O)[C@H](Cc1ccc(O)cc1)NC(=O)[C@@H](NC(=O)[C@@H](NC(=O)[C@H](CCCNC(=N)N)NC(=O)[C@H](Cc1ccccc1)NC(=O)[C@@H](NC(=O)[C@H](Cc1c[nH]c2ccccc12)NC(=O)[C@@H](N)CCCCN)C(C)C)C(C)C)C(C)C)C(=O)N[C@H](C(=O)N[C@@H](Cc1ccc(O)cc1)C(=O)N[C@@H](CCCNC(=N)N)C(=O)N[C@@H](CCCNC(=N)N)C(=O)N[C@H](C(=O)N[C@@H](CCCNC(=N)N)C(=O)O)C(C)C)C(C)C [TPV] (H-KWVFRVVYRGIVYRRVR-OH) |  |  | 15 mm | 16 mm
